Data from the RNAGym collection of RNA variant scans (doi:10.7554/elife.90254).
Read counts are not given, so values of variants with three or more changes are uncertain.

B1: LINE1-mini (parent)
chain: GGCAGAGCUCAACACAGCGUGGCAAAGUGGCUGUGGCUAGACUGCC

Variants of: B1
Experiment: self-cleavage, relative activity (ratio to wild type); higher = more cleavage; in vitro, sequencing; the parent is a self-cleaving ribozyme
In the case of C31U C37G C42U, the self-cleavage is reported as 0.07. In the case of C31A U34A G36U, the self-cleavage is reported as 0.01. G30C G36C A41G gave a self-cleavage of 0.08. G30A U34A U38A gave a self-cleavage of 0.05. Work on C31U G33A U34A yielded a self-cleavage of 0.06. For U32A U34C G36A, the self-cleavage was 0.01. For G33A A39U C45U, the self-cleavage was 0.04. For C31U C37A A39C, the self-cleavage was 0.06. Variant G33U A39G A41U has a self-cleavage of 0.05. G30A G33A A39G C42U U43G gave a self-cleavage of 0.06. In the case of G33U G35C C42G, the self-cleavage is reported as 0.16. In the case of C31G C37A C45U, the self-cleavage is reported as 0. For G30U G35U G44C, the self-cleavage was 0.05. Work on G35C G40A C42U yielded a self-cleavage of 0.04. G33U A39G G40A U43C showed a self-cleavage of 0.03. Work on G35A G36C C42U yielded a self-cleavage of 0.15. Variant G29U G44C C45A has a self-cleavage of 0.08. U34G G40U G44A gave a self-cleavage of 0.13. G30C A39U U43A showed a self-cleavage of 0.03. Work on C31U G35U C46G yielded a self-cleavage of 0.05. With C31G U38C C46A the self-cleavage was 0.03. For U32G G33U A41C, the self-cleavage was 0.01. With G30A C31U G36U the self-cleavage was 0.43. With G33U U38G G44C the self-cleavage was 0.04. G30A C31A U43G G44U showed a self-cleavage of 0.12. In the case of C31U A39G G40U C46A, the self-cleavage is reported as 0.02. U32C U38A G44A showed a self-cleavage of 0.01. Work on C31A U34G G40A yielded a self-cleavage of 0.02. C31A G33U G36A showed a self-cleavage of 0.11. With U32G C37U C46A the self-cleavage was 0.04. In the case of C31U G33A G44A, the self-cleavage is reported as 0.02. For G35A A39G G44U C45U, the self-cleavage was 0.04. Variant U34G G35A U38G has a self-cleavage of 0.02. G30C C42U C45A showed a self-cleavage of 0.02. For G35A G40C A41C U43A, the self-cleavage was 0.03. Work on C31U U38C G44U yielded a self-cleavage of 0.01. With C31U U38C A41C the self-cleavage was 0.03. Variant U32G G44A C46G has a self-cleavage of 0.04. With U32A A41G G44U the self-cleavage was 0.04. U32A G36C C37A showed a self-cleavage of 0.14. With U34G G35U G44U the self-cleavage was 0.05. U32C G36C U38A showed a self-cleavage of 0.29. With G33U A39U A41G the self-cleavage was 0.12. Work on C31G G33U C45A yielded a self-cleavage of 0.07. G35C U38G C46U showed a self-cleavage of 0. G33A G36U A41U C45G gave a self-cleavage of 0.03. In the case of G33C C42G U43A, the self-cleavage is reported as 0.03. U32A C37A G40C showed a self-cleavage of 0.09. With G33U U34A G35U C42A the self-cleavage was 0.03. Work on G33U A41C U43G yielded a self-cleavage of 0.03. Variant G33U U34C C37G A39U has a self-cleavage of 0.01. In the case of C31G U38C G40U C45A, the self-cleavage is reported as 0.09. U34G G36U C46U gave a self-cleavage of 0.07. For G30C C45G C46A, the self-cleavage was 0.06. Work on G30C C45G C46G yielded a self-cleavage of 0.02. In the case of U32G C45U C46G, the self-cleavage is reported as 0. U32G C45U C46U showed a self-cleavage of 0.06. For G33A C37A C45U, the self-cleavage was 0.06. Work on G33C C37G C45U yielded a self-cleavage of 0.02. For G35C A39G C42A G44U, the self-cleavage was 0.03. Variant C31A U43A G44C has a self-cleavage of 0.02. G30U C37U C42U G44U C45G showed a self-cleavage of 0.08. U34A G35A A39G C45U showed a self-cleavage of 0.01. Work on G30C U34A G35A G40A yielded a self-cleavage of 0.04. U32C G33C C46A showed a self-cleavage of 0.05. Work on G35A A41U G44U yielded a self-cleavage of 0.05. In the case of G35A A41U G44A, the self-cleavage is reported as 0.01. G30A C31U G35U U38G A41U showed a self-cleavage of 0.01. Work on G30A G44U C45U yielded a self-cleavage of 0.17. With G30A G40U U43C the self-cleavage was 0.02. Work on C31A G36C C37G yielded a self-cleavage of 0.03. For C31A G36C C37A, the self-cleavage was 0.04. For G30C U38A A39U G40C, the self-cleavage was 0.09. Work on C31G G35U G40U C45A yielded a self-cleavage of 0.1. In the case of U34C G36C U43A, the self-cleavage is reported as 0.02. U32A G33A G44A showed a self-cleavage of 0.07. Variant C31G G33U U43C C45U has a self-cleavage of 0.18. Variant G30A G40A G44U has a self-cleavage of 0.02. G33U C42A C45A gave a self-cleavage of 0.03. Variant C31A U32C C42A has a self-cleavage of 0.06. Work on C31G G33U C37A G40A yielded a self-cleavage of 0.02. With G35C G36C U38A G40A the self-cleavage was 0.02. G33A G36A A39G showed a self-cleavage of 0.05. For C31A U32C A39C, the self-cleavage was 0.12. In the case of G30U U32C C42A, the self-cleavage is reported as 0.04. C31U G36U C37U C45G gave a self-cleavage of 0.02. For G30A U34G G44C C46U, the self-cleavage was 0.01. For G30U A39C C46G, the self-cleavage was 0.23. Work on G30A A39C A41G yielded a self-cleavage of 0.1. With U32A C37A U43A C46U the self-cleavage was 0.01. With G30C G33U G40A U43C the self-cleavage was 0.19. Work on U32C G36A U43A yielded a self-cleavage of 0.11. Work on G33A A41G C42G yielded a self-cleavage of 0.13. G33A C37U U38G showed a self-cleavage of 0.02. C31A U34G U43A gave a self-cleavage of 0.01. Variant C31A G36A U43A has a self-cleavage of 0.12. Work on C31A A39G G44U yielded a self-cleavage of 0.01. Variant G33A G35U G36A has a self-cleavage of 0.13. For G30A A39U C42A, the self-cleavage was 0.17. Work on G30A C31G U34G yielded a self-cleavage of 0.03. Variant U34G U38G C46U has a self-cleavage of 0.03. In the case of G35A A39U C45U, the self-cleavage is reported as 0.05. Variant G33U U34A U38A has a self-cleavage of 0.03. Work on G33A C37U C45A yielded a self-cleavage of 0.03. G30U G33U G36C C45U showed a self-cleavage of 0.11. For C31A U32G C42U U43A C45G, the self-cleavage was 0.07. Work on G30C A41G G44U C45A yielded a self-cleavage of 0.06. G35C A39U G40C U43G showed a self-cleavage of 0.04. With G33U U38A A41G C42A the self-cleavage was 0.09. Work on G30A G35C G36U yielded a self-cleavage of 0.12. Work on G35A G36C C45U yielded a self-cleavage of 0.26. For G30C C31G C42U, the self-cleavage was 0.05. With U34G C37U U43C the self-cleavage was 0.05. For G30C G33U G35A, the self-cleavage was 0.03. Variant U32A C37A U43A has a self-cleavage of 0.08. With G35C U38C C45U the self-cleavage was 0.02. Variant U32A C37U U43C has a self-cleavage of 0.03. C31A G33U C37A A39G gave a self-cleavage of 0. G33U G35A C46A showed a self-cleavage of 0.06. G30C U38C A41C showed a self-cleavage of 0.01. U32C G33U C42A gave a self-cleavage of 0.06. U32C A39C G44U gave a self-cleavage of 0.01. For U32A C37A A39G, the self-cleavage was 0.01. G30U G33C C46A gave a self-cleavage of 0.01. For G30C C37A A41U, the self-cleavage was 0.09. U34A A39G G40C gave a self-cleavage of 0.05. C31G G33A G35C C45U showed a self-cleavage of 0. Variant U32A G36A C45G has a self-cleavage of 0.09. C31G U38G G40U gave a self-cleavage of 0. For C31G C42A C46G, the self-cleavage was 0.04. U32A G44C C46A showed a self-cleavage of 0. Work on G30C C37A A39C yielded a self-cleavage of 0.03. For G30A C31G C37A, the self-cleavage was 0.03. Work on G30A G33A G36C C37G A41G yielded a self-cleavage of 0.02. Variant G30C C31U A39C has a self-cleavage of 0.06. C31U U34A G40U gave a self-cleavage of 0.01. For G30U U32A C42A C45U, the self-cleavage was 0.03. With U34C G36U G44U the self-cleavage was 0.13. C31U G36C C37U showed a self-cleavage of 0.01. G33C C37U C45G showed a self-cleavage of 0.02. G33C C37U C45A showed a self-cleavage of 0.02. C31A C37A C42U G44A showed a self-cleavage of 0.34. With G30U U32A G36A A39C G40C A41U the self-cleavage was 0.14. For G29U U32C C45G, the self-cleavage was 0.05. Work on G30C C31G G36U yielded a self-cleavage of 0.07. For G30C G33U A41U, the self-cleavage was 0.2. Variant G33C C42U U43G has a self-cleavage of 0.03. Variant G30A C31U U43A C46U has a self-cleavage of 0.01. With U32C U38G G40C the self-cleavage was 0.23. Variant U34C G40U G44C has a self-cleavage of 0.09. C31G A39G C42G gave a self-cleavage of 0.03. Work on G30A G33U G40C yielded a self-cleavage of 0.11. With U32G G36A C37U the self-cleavage was 0.06. With G35C A39U C46A the self-cleavage was 0.06. With G35A A39C C46A the self-cleavage was 0.05. G30U C37U U38A U43A gave a self-cleavage of 0.02. Variant U32C G35C G44A has a self-cleavage of 0.02. Work on C31A C45A C46A yielded a self-cleavage of 0.02. Variant G35A U38A C45G has a self-cleavage of 0. Work on U32G G36U C45U yielded a self-cleavage of 0.03. U32G C42G C45U showed a self-cleavage of 0.03. Variant C31G C37A A41C C46A has a self-cleavage of 0.01. Variant G30A U34A C45G has a self-cleavage of 0.06. Work on G35C G44U C46A yielded a self-cleavage of 0.04. G29U G40U C42A showed a self-cleavage of 0.04. With C31G G35U C42A the self-cleavage was 0.02. G29U U34A C42U gave a self-cleavage of 0.05.
